# PubChem BioAssay (NCI)
#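 Cultured in 96-well plates, cells were exposed to test compound for 48 hours across five concentrations. At the GI50, growth is halved. Definition used: TGI = concentration required for complete inhibition of growth.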
# Tested on: NCI-H322M lung
# Assay: NCI-60 cell line screen, 48 h
Structure (SMILES),TGI [µM],GI50 [µM]
COc1ccc(OC)c(C(=O)/C=C/c2cc(O)c(O)cc2F)c1,21.3,–
Clc1ccc(-n2nnc(C3=NCCCN3)c2-c2ccccc2)cc1,> 100,–
COc1cc2c(c(OC)c1OC)-c1ccc(SC)c(=O)cc1[C@@H](NC(=O)c1ccc(OC(C)=O)cc1)CC2,81.8,–
CC(=O)NC1=C(Nc2ccc(C)cc2)C(=O)c2ccccc2C1=O,26.4,–
N#CC1=C(N)OC2=C(COc3ccc(F)cc32)C1c1ccc(Cl)cc1 (configuration not stated),> 100,49.5
Nc1ccc(C(=O)c2ccc(N)c(Br)c2)cc1Br,> 62.1,2.75
CCCc1ccc(S(=O)(=O)N[C@H]2CC[C@H]3[C@@H]4CCc5cc(O)ccc5[C@H]4CC[C@]23C)cc1,17.9,4.86
C=CCn1c(-c2ccccc2)cs/c1=N\C(P(=O)(O)O)P(=O)(O)O,> 100,–
CCOC(=O)CCCn1c(SC)nc2cc(-c3ccco3)[nH]c2c1=O,> 100,> 100
CN(C)NC1=NS(=O)(=O)c2cc3c(cc2S1)N(N(C)C)C(=O)c1cc2c(cc1N(N(C)C)C3=O)SC(NN(C)C)=NS2(=O)=O,> 10,–
c1cc2c(cc1C(N1CCNCC1)N1CCNCC1)OCO2,> 100,–
COc1ccc2c(c1)c(=O)c1c(NCCCN(C)CCCNc3ccc4c(=O)n(CCN(C)C)c(=O)n5c6ccc(OC)cc6c(=O)c3c45)ccc3c(=O)n(CCN(C)C)c(=O)n2c31,2.83,–
O=C1C=C(N2CCCC2)C(=O)c2c(O)ccc(O)c21,> 10,–
CC([C@H]1CCC2C3CCC4C[C@@H](NC=O)CC[C@]4(C)C3CC[C@@]21C)N(C)C (some centres not stated),8.83,2.74
O=C1c2n[nH]nc2C(=O)c2n[nH]nc21,> 100,–
COc1cc(NC(=O)c2cc(OC)c3ccn(C)c3c2)cc2c1C[C@]1(C)CC[C@@H](O)C(C)(C)[C@H]1O2,> 100,> 100
CN1[C@@H]2CCCC[C@H]2N(C)P1(=O)C(O)/C=C/c1ccccc1 (some centres not stated),> 100,–
CCCCCNC(=O)[C@@H]1CCCN2C(=O)CC[C@H](NC(=O)[C@H](Cc3ccc(OP(=O)(O)O)cc3)NC(C)=O)C(=O)N12,> 25,> 25
COc1ccc(C(=O)C(c2ccc(OC)cc2)C2(O)C(=O)Nc3c(C)cc(Cl)cc32)cc1 (configuration not stated),> 100,–
C/C=C1/CN2[C@@H](C3=C[C@@H]4[C@@H]5N(C3=O)c3ccccc3[C@@]53CCN5C/C(=C/C)[C@@H]4C[C@H]53)C[C@@]34c5ccccc5N5C(=O)CC=C([C@H]1C[C@H]23)[C@H]54,12.9,–
CN(C)Cc1cc(C(C)(C)C)cc(CNC2CCCCC2)c1O,> 100,–
CCC(C)NC(=S)N/N=C(\C)c1ccccn1 (configuration not stated),> 100,–
CCN1C(=O)N(CC)C2C1NN=c1s/c(=C3\C(=O)N(CC(C)C)c4ccccc43)c(=O)n12 (configuration not stated),> 100,1.65
N#CC(c1nc2ccccc2s1)c1nc(Cl)ncc1Br (configuration not stated),> 100,–
CC(=O)c1cc2c(s1)C(=O)c1scc(C(C)=O)c1C2=O,1.68,–

Structure (SMILES),TGI [µM],GI50 [µM]
C=C1C(=O)O[C@@H]2C1C[C@@H](O)/C(C)=C/C/C=C(\C)CCC[C@H](C)[C@H]2OC(C)=O (some centres not stated),> 100,47.7
O=C(O)CS(=O)c1ccc2c3c(cccc13)C(=O)c1ccccc1-2 (configuration not stated),> 100,–
N#CC1=C(N)NC(=S)NC12Nc1ccccc1O2 (configuration not stated),> 100,66.3
Cn1nc(-c2ccccc2)c(N=[N+]=[N-])cc1=O,> 100,–
COc1cc(CCNC2=CC(=O)c3cccnc3C2=O)ccc1O,3.42,–
O=C(CNC(=O)OCc1ccccc1)Oc1ccccc1,> 100,–
O=c1[nH]c(=S)c2cc3c(=S)[nH]c(=O)n(CCC(c4ccccc4)(c4ccccc4)c4ccccc4)c3nc2n1CCC(c1ccccc1)(c1ccccc1)c1ccccc1,> 100,–
CCCN=C1Nc2ccccc2[C@@H]2N(C)c3ccccc3C(C)C[C@]12C (some centres not stated),50.7,–
FC(F)(F)c1cccc(COCCN2CCN(Cc3cccc(C(F)(F)F)c3)CC2)c1,32.7,–
CCOC(=O)c1[nH]cnc1/N=N/N(C)N,> 100,–
COc1ccc(/C=C2\Sc3nnc(C)n3N=C2c2cc(F)c(Cl)cc2Cl)cc1OC,31.9,–
N/N=C(\CC1OC(=O)c2ccccc21)c1ccco1 (configuration not stated),> 100,–
S=c1[nH]c(=S)c2sc(=S)n(-c3ccccc3)c2[nH]1,> 100,–
c1nncn1C12C3C4C5C3C1C5C42 (configuration not stated),> 100,–
Fc1ccc(C2NC(=S)NC3=C2CCOc2c3ccc3ccccc23)cc1 (configuration not stated),> 100,–
CCOC(=O)CN=C1Nc2ccccc2C(=O)N2CSCC12 (configuration not stated),> 100,–
Nc1nc(Nc2ccc3c(c2)CC[C@@H](N2CCCC2)CC3)nn1-c1cc2c(nn1)-c1ccccc1CCC2,2.47,1.03
CSc1nc2c(c(=O)n1C)N=C(c1ccc(Cl)cc1)CC(c1ccccc1)N2 (configuration not stated),> 100,–
CC1(C)NCCC[C@]2(C)[C@H]3C=CC4=C5C[C@](C)(CO)CC[C@]5(C)CC[C@@]4(C)[C@]3(C)CC[C@@H]12,16.9,4.78
O=C(/C=C/C=C/c1ccccc1)CCc1ccccc1,> 100,–
O=C1OC(C2Cc3ccccc3C2=O)c2ccccc21 (configuration not stated),> 100,–
COc1ccc(/C=C\c2cc(OC)c(OC)c(OC)c2)cc1OC(=O)C(N)CCC(=O)O (configuration not stated),–,0.00327
CN(NC(=O)CC(=O)NN(C)C(=S)c1ccccc1)C(=S)c1ccccc1,> 100,> 100
NC(CCl)=NC1CN2CCC1CC2 (configuration not stated),> 100,–
c1ccc2[nH]c(SSc3nc4ncncc4[nH]3)nc2c1,> 79.4,1.9

Structure (SMILES),TGI [µM],GI50 [µM]
CC(C)(C)OC(=O)NC1CCCC1C(O)(C1=CCCC1)C1=CCCC1 (configuration not stated),> 100,–
CC(=O)[C@H]1CC[C@H]2[C@@H]3CCC4=CC(=O)CC[C@]4(C)[C@H]3CC[C@]12C,> 100,–
NNC(=Nc1ccccc1)SCc1ccccc1,> 100,–
N#Cc1ccc(OC(=O)c2ccc(N=C(N)N)cc2)cc1,> 100,–
CC1(C)OC[C@@H]([C@@]2(CO[Si](C)(C)C(C)(C)C)CC=CC(=O)O2)O1,66.3,21.5
CCCCCCCCCNCCCCCCCCC,31,14.8
Cn1ccc2c(NCCN)c3c(c(NCCN)c21)C(=O)c1ccccc1C3=O,1.96,0.374
COC1/C=C\C=C(/C)C(=O)Nc2cc3nc4ccc(Br)cc4oc-3c(c2=O)CC(C)CC(OC)C(O)C(C)/C=C(\C)C1OC(N)=O (configuration not stated),25.4,–
CC(=O)Nc1nc(SCc2ccccc2)c2ncn(C(C)=O)c2n1,> 100,> 100
CCN(CC)CCOc1ccc(Nc2ncc3cc(-c4ccc(O)cc4)c(=O)n(C)c3n2)cc1,23.1,4.37
CC(C)(C)C(=O)Nc1ccccc1I(=O)=O,> 100,> 100
C=C1C[C@@H]2C/C=C/C(=O)C/C(C)=C\C=C\C(=O)O[C@H](C=O)C/C(C)=C/[C@H](C1)O2,19.6,5.84
CC(C)=CCC/C(=C\CC/C(=C\CCc1ccoc1)C(=O)O)C(=O)O,> 100,–
COC(=O)c1c(C)ccc2c(O)c3c(cc12)C(=O)c1c2c(cc(O)c1C3=O)C1(C)OC(C)(O2)C(O)C(N(C)C)C1O (configuration not stated),4.7,–
CC1(C)COCN1COC1CCCCC1,> 100,–
[N-]=[N+]=NC1=NNC2(C(=O)N1)c1ccccc1-c1ccccc12,> 100,–
C=C(C)[C@@H]1CC[C@]2(CO)CC[C@]3(C)[C@H](CC[C@@H]4[C@@]5(C)CC[C@H](O)C(C)(C)[C@@H]5CC[C@]43C)[C@@H]12,25.5,–
O=C1c2cc([N+](=O)[O-])cnc2S(=O)(=O)N1c1ccc(Br)cc1,> 100,–
O=C(O)CCC(C(=O)O)N1C(=O)c2ccccc2C1=O (configuration not stated),> 100,–
C/C=C1\CN2CCC34c5ccccc5N(C)C35OCC4(C(=O)OC)C1CC25 (configuration not stated),> 100,–
CC(/C=N/N(C)C1=NCCCCN1)=N/N(C)C1=NCCCCN1,> 100,–
O=C1CSC(c2cccc(Cl)c2)N1c1c(O)c(Cl)cc(Br)c1Cl (configuration not stated),> 100,–
CC(=O)N1CC(C)(C)c2c1cc(C)c(O)c2C,> 100,–
[N-]=[N+]=C(C(=O)OCC#CCOC(=O)C(=[N+]=[N-])S(=O)(=O)c1ccccc1)S(=O)(=O)c1ccccc1,> 10,–
C=C1CC[C@@]2(C#N)[C@H]3[C@H](CC[C@@H]2C)[C@@H](C)C[C@@H](CC(C)(C)C#N)[C@H]13,31,4.32

Structure (SMILES),TGI [µM],GI50 [µM]
Cc1cc(O)c(C(=O)CC2(O)C(=O)Nc3c(Cl)cc(Cl)cc32)c(=O)o1 (configuration not stated),> 100,–
N#CCc1ccc(C(C#N)/C(CCCC(=O)Nc2cccc([N+](=O)[O-])c2)=N\NC(=O)NN)cc1 (configuration not stated),> 100,–
CCOC(O)C(F)(F)F (configuration not stated),> 100,–
COc1ccc(C2=NN(C(=O)COc3ccc(Cl)cc3)C(O)(c3cc(F)c(Cl)cc3Cl)C2)cc1OC (configuration not stated),30.3,15.7
O=c1[nH]c2nccnc2c2c([N+](=O)[O-])cccc12,> 100,–
Cc1c(C#N)c2nnn(-c3ccc([N+](=O)[O-])cc3)c(=O)n2c1-c1ccccc1,85.1,–
CCOC(=O)Cc1csc(/N=C2\NC(=O)/C(=C3\C(=O)N(C)c4ccccc43)S2)n1,80.4,22.9
Nc1nc2cc(CNc3ccc(C(=O)O)cc3)ccc2nc1-c1ccccc1,> 100,–
COc1ccc(C2c3cc4c(cc3OC(NNC(N)=O)C2C)OCO4)cc1 (configuration not stated),> 77.1,–
O=c1[nH]nc(Cc2ccccc2)n1/N=C/c1ccc([N+](=O)[O-])o1,20.7,–
Cc1ccc(S(=O)(=O)Nc2nc3ccccc3c(=O)n2C2CCCCC2)cc1,> 100,–
CC1(C)C2CCC1(C)C(N/C(=C(/C(Cl)=C(Cl)Cl)[N+](=O)[O-])n1nnc3ccccc31)C2 (configuration not stated),> 100,–
CN(C)c1ccc(/C=N/n2c(-c3ccccc3)nc3ccccc3c2=O)cc1,> 100,–
O=C(O)c1c2c(c(C(=O)O)c3ccccc13)-c1ccccc1-2,> 100,–
COc1ccc2c([nH]c3cc(O)c(C)cc32)c1C=O,> 25,–
O=C(Nc1ccc(-n2cc(-c3ccncc3)c(-c3ccc(O)c(Cl)c3)n2)cc1)c1cc(Cl)cc(Cl)c1,> 32.5,> 32.5
Cc1ccc(C2(N3CCCC3)OC(C)(C)c3cccc4cccc2c34)cc1 (configuration not stated),35.7,–
O=C(CCCC1Cc2ccccc2C1=O)c1ccccc1 (configuration not stated),> 100,–
O=c1c2ncn(C3CCCCO3)c2n(-c2ccccc2)c(=S)n1-c1ccccc1 (configuration not stated),> 100,–
c1nc2cscc2c2cscc12,> 100,–
COC(=O)/C=C(C)/C=C/c1cc(C(C)=O)c(C)o1,> 100,–
COC1/C(=C\C(=O)OC(C)(C)C)c2ccccc2N1C(C)=O (configuration not stated),> 100,–
